Results from paper PMC4336329 (PLoS ONE, 2015).
Hit rate of the full screen: of about 310,000 compounds, about 2,200 (0.71%) showed an effect of 50% or more. Effects have a minus sign here. The list shows a part of the results.

target: human ether-à-go-go-related gene (hERG) potassium channel (human, UniProt Q12809); test: primary screen, population patch clamp on CHO cells stably expressing hERG
Sequence (Q12809 whole entry, looked up): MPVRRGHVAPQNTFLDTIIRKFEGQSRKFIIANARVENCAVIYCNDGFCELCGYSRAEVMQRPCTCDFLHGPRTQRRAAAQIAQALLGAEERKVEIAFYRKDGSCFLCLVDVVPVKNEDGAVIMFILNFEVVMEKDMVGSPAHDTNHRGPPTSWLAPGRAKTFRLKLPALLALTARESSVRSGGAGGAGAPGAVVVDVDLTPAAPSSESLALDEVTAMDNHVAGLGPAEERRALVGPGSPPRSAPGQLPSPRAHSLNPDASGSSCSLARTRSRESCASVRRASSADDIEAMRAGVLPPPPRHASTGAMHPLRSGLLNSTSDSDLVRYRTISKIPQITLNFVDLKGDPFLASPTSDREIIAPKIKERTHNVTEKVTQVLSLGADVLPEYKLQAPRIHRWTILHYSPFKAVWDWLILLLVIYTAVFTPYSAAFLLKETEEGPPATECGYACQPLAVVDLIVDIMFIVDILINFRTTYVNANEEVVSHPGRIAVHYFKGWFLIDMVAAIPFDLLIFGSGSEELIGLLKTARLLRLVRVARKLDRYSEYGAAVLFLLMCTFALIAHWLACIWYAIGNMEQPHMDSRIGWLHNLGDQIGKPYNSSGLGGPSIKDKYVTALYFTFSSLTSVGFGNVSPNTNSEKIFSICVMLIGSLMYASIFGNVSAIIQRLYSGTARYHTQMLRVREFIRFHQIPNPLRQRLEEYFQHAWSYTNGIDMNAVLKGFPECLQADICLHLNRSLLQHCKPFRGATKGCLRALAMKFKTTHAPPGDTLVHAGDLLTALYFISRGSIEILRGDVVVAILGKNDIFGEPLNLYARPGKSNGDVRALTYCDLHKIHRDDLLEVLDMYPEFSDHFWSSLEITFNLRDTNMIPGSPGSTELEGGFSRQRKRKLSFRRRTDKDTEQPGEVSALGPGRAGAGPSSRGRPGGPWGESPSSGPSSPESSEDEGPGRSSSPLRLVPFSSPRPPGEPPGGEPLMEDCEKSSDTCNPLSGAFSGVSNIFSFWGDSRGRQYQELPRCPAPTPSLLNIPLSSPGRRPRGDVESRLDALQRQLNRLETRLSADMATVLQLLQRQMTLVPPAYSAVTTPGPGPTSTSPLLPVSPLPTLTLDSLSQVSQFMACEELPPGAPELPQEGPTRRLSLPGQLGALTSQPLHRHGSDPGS

Compound | hERG current change (%, negative = inhibition) at 1uM [%]
O=C(Cc1c[nH]c2ccccc12)NC1(C(=O)NC2CCCCC2)CCCCC1 | -3.56
O=C(CCCCCNC(=O)N1CCn2c1nc1ccccc12)N[C@@H](C(=O)O)c1ccccc1 | -3.95
C=CCn1c(SCC(=O)N(CCO)CCO)nc2sc3c(c2c1=O)CCC3 | 13.5
CN(Cc1ccccc1)C(=O)c1cccnc1 | 10.5
O=C(NC(c1ccccc1)C(Cl)(Cl)Cl)c1ccccc1 (centres unmarked) | 4.9
O=C(Nc1ccc(Cl)cc1)OCCn1nnnc1C(c1ccccc1)N1CCOCC1 (centres unmarked) | -1.81
Cc1ccc(NC(=O)C2(S(=O)(=O)c3ccc(Cl)cc3)CC2)c(Br)c1 | 2.54
O=C(NCc1ccccc1Cl)c1ccc(Br)o1 | 21.7
CC(=O)Nc1ccc(S(=O)(=O)NCc2ccncc2)cc1 | -5.52
CSc1ccccc1C(=O)C1CCCN(C(=O)c2csnn2)C1 (centres unmarked) | -13.5
Cc1oc2nc(SCC(=O)N3CCCCC3)nc(N)c2c1C | 10.3
CCCOc1ccc(-c2csc(N)n2)cc1[N+](=O)[O-] | 11.1
CCOC(=O)N1CCC2(CC1)C(C(=O)C13CC4CC(CC(C4)C1)C3)C2(C#N)C#N (centres unmarked) | 2.05
CC[C@H](C)[C@H](NC(N)=O)C(=O)Nc1ccc(C)cc1 | 8.31
COc1ccc(OC2CCN(S(=O)(=O)c3ccccc3)CC2)cc1 | 15.3
O=C(c1cc2ccccn2n1)N1CCC2(CC1)OCCO2 | 3.43
CC1CCN(CC(=O)c2c[nH]c3ccccc23)CC1 | -6.87
CCOC(=O)C1CCCN(C2=NC(=O)/C(=C/c3ccc(O)c(OCC)c3)S2)C1 (centres unmarked) | -1.27
COCCN(C(=S)Nc1cc(C)cc(C)c1)C(C)c1cccs1 (centres unmarked) | 10.7
Cc1cccc(C)c1NC(=O)CNC(=O)CNC(=O)c1ccc2c(c1)OCO2 | 2.56
CCCOc1ccc(N2C(=O)C3C(C(C)C)NC4(C(=O)c5ccccc5C4=O)C3C2=O)cc1 (centres unmarked) | 3.12
O=C1c2ccccc2C(=O)N1CCCCN(C(=O)c1cccc([N+](=O)[O-])c1)c1ccc(Cl)cc1 | 3.85

Compound | hERG current change (%, negative = inhibition) at 1uM [%]
COc1ccccc1NC(=S)N(CCCN1CCOCC1)Cc1cn(C)c2ccccc12 | -1.03
Clc1cccc(CN2CCc3c([nH]c4ccccc34)C2)c1 | 0.287
COc1ccc(-c2oc(=O)c3cc(OC)c(OC)cc3c2-c2cc(F)cc(OC)c2)cc1 | 17.7
COCCNC(C)C(=O)Nc1ccc(Br)cc1.Cl (centres unmarked) | 17.6
CCOc1cc(N2CCOCC2)c(OCC)cc1NC(=O)COC(=O)C1CCCN1S(=O)(=O)c1ccccc1F (centres unmarked) | 0.718
O=C(C1CCN(S(=O)(=O)c2ccccc2F)CC1)N1CCc2ccccc21 | 7.02
CCOC(=O)c1cnc2oc3ccccc3n2c1=O | 10.7
Cn1nc(C(C)(C)C)cc1NC(=O)Nc1cc(Cl)cc(Cl)c1 | 11
CC1CCN(c2nc3c(=O)[nH]c(N)nc3n2[C@@H]2O[C@H](CO)[C@@H](O)[C@H]2O)CC1 | 17.2
Cc1ccc(CNc2nc3ccccc3n3cnnc23)cc1 | 7.42
c1ccc(C2NCCn3cccc32)cc1 (centres unmarked) | 12.8
CCN(CC)C(=O)Cn1cc(C(=O)C(=O)NCCc2c[nH]c3ccccc23)c2ccccc21 | 11.2
COc1cc(OC)c2c(-c3ccccc3)cc(=O)oc2c1C(CCN1CCCC(C)C1)c1ccc(N(C)C)cc1 (centres unmarked) | 8.15
Fc1ccc2[nH]c3c(NCc4ccccc4)ncnc3c2c1 | 15.4
Cn1c(CC(=O)Nc2ccccc2)nnc1SCC(=O)Nc1ccc(N2CCOCC2)cc1 | 17.7
Cc1ccc(C)c(NC(=O)C2CCCN(S(=O)(=O)c3cccnc3)C2)c1 (centres unmarked) | 20.2
CCc1ccc(N2CC(O)(c3cccs3)[N+]3=C2SCCC3)cc1.[Br-] (centres unmarked) | -38.5
CCOC(=O)c1cc(CC)sc1/N=C/C1=C(O)CC(C)(C)CC1=O | 8.59
CC(C)(C)OC(=O)N/N=C/c1ccc(Br)cc1 | 11.1
COc1ccc(-c2cc(=O)oc3cc(OC(C)C(=O)O)ccc23)cc1 (centres unmarked) | 9.71
NNc1ncnc2c1cnn2-c1ccccc1 | 5.6
CCOc1cc(C(=O)Nc2nnc(C)s2)cc(OCC)c1OCC | 3.72
